# Measured values from article PMC5531264 (Biochemistry, 2016).
# B1: Sterile Alpha Motif and HD Domain Protein 1 (SAMHD1), wild type, full length, human (enzyme)
# chain: not shown
# B2: SAMHD1 Δ[…] (truncated form lacking the C-terminal […]) (domain or fragment)
# chain: not shown
# Key:
# cross-linking [1] = molecular target: the molecule itself; assay: cross-linking
# cross-linking [2] = molecular target: the molecule itself; assay: cross-linking; remark: listed apart in the source
Protein,stoichiometry N (cross-linking [1]),binding result (cross-linking [2])
B1,4,
B2,,binds
